Measured values taken from PubChem BioAssay AID2147 (National Center for Advancing Translational Sciences (NCATS), 2009).
Among all 230,000 compounds or so, about 3,600 (1.6%) were called active. The shares of active, inactive and inconclusive entries below differ from those in the screen. Calls follow the shape of the dose curve; as a rule, active = well fitted inhibition curve with a large enough effect (not every such curve was filed as active); inconclusive = small, poorly fitted or top-dose-only effect, or another doubt; inactive = no such curve, though single readings can be large or run the other way. Potencies beside an inconclusive call are fits to weak or partial responses and may not hold up.

target: Lysine-specific demethylase 4E (Homo sapiens) (UniProt B2RXH2); test: qHTS Assay for Inhibitors of Human Jumonji Domain Containing 2E (JMJD2E); details: JMJD2E catalytic domain, FDH-coupled NADH fluorescence (FDH is formaldehyde dehydrogenase); series mostly up to 57.1 µM
Chain of UniProt B2RXH2 (B2RXH2 whole entry, looked up, the tested form may be a part): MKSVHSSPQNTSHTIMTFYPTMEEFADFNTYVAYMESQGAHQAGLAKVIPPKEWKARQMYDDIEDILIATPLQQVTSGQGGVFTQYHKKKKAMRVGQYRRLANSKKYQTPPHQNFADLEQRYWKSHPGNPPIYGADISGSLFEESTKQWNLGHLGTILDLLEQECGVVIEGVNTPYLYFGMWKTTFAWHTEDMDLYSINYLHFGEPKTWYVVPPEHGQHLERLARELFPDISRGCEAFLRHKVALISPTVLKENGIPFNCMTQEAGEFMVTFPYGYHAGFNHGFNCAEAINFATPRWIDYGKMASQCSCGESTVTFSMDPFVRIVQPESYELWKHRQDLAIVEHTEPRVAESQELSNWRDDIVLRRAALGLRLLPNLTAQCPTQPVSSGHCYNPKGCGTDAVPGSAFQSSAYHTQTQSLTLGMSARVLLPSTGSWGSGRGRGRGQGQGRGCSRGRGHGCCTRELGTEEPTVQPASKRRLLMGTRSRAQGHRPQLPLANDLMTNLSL
Also: nearly all actives have a fitted effect of over 50% in size.
Potency is read from the fitted curve at half-maximal effect; tags tell the direction and shape of the fitted curve.

Q: Which Potency does the source give for `CCc1ccc(-n2nc3ccc(NC(=O)c4ccc5c(c4)OCO5)cc3n2)cc1` here?
A: inconclusive: 14.1 µM [inhibitor, partial curve]

Q: Which Potency does the source give for `Cc1ccc(NC(=O)c2c3c(nc4ccccc24)CCC3)cc1` here?
A: inactive

Q: Which Potency does the source give for `CC1OC(Oc2ccc3ccc(=O)oc3c2-c2c(O)ccc3cc(Oc4ccc5ccc(=O)oc5c4)c(=O)oc23)C(O)C(O)C1O` (stereo not drawn) here?
A: inconclusive: 35.5 µM [inhibitor, single point]

Q: How did the Potency turn out when `CC1(C)CC(=O)C2=C(C1)OC(N)=C(C#N)C2c1ccccc1[N+](=O)[O-]` (stereo not drawn) was run?
A: inconclusive: 35.5 µM [inhibitor, single point]

Q: With `CCOc1cccc(CNCCNC(=O)c2nonc2N)c1` as the compound, how does the Potency read?
A: inconclusive: 39.8 µM [inhibitor, single point]

Q: With `CCOC(=O)Cc1c(Cl)c2ccccc2[nH]c1=O` as the compound, how does the Potency read?
A: inconclusive: 39.8 µM [inhibitor, single point]

Q: `c1cncc(CNc2nc(-c3ccc4c(c3)OCO4)nc3ccccc23)c1` was tested. Which Potency did it give?
A: inconclusive: 31.6 µM [inhibitor, partial curve]

Q: For `Cc1ccc(NC(=O)NC(=O)CSc2nnc(-c3ccc(Cl)cc3Cl)n2N)c(C)c1`, which Potency is on record?
A: inactive

Q: For `Cc1ccc(C2=NN(C(=O)CCC(=O)O)C(c3cccs3)C2)cc1` (stereo not drawn), which Potency is on record?
A: inactive

Q: How did the Potency turn out when `COc1ccc(CCNC(=O)CCC2COc3ccccc3O2)cc1OC` (stereo not drawn) was run?
A: inactive

Q: How did the Potency turn out when `O=C(N=C1c2ccccc2CN1c1ccc(F)cc1)c1ccc(Cl)nc1` was run?
A: inactive

Q: For `CCC(CC)c1nc2cc(OC)c(OC)cc2c(=O)o1`, which Potency is on record?
A: inconclusive: 39.8 µM [inhibitor, single point]

Q: How did the Potency turn out when `c1ccc2c(Nc3nc4c(s3)CCCC4)cccc2c1` was run?
A: inconclusive: 28.2 µM [inhibitor, partial curve]

Q: Which Potency does the source give for `COc1cc(NC(=O)COc2ccc(Br)cc2)ccc1NC(=O)C(C)C` here?
A: inconclusive: 5.01 µM [inhibitor, single point]

Q: For `Clc1nc2ccccc2cc1-c1nnn(-c2ccccc2)n1`, which Potency is on record?
A: inconclusive: 39.8 µM [inhibitor, single point]

Q: For `Cc1ccc(-c2nnn(CC(=O)N(c3ccc4c(c3)OCCO4)C(C(=O)NCC3CCCO3)c3ccc(F)cc3)n2)o1` (stereo not drawn), which Potency is on record?
A: inactive

Q: How did the Potency turn out when `Clc1ccc2c(c1)c1cc(Cl)ccc1n2CN1CCOCC1` was run?
A: inactive

Q: `Cn1[nH]c(-c2ccccc2)c(/C=N/O)c1=O` was tested. Which Potency did it give?
A: inconclusive: 25.1 µM [inhibitor, single point]

Q: `COc1ccc(C2C=C(c3ccc(Cl)cc3)Nc3nc(NC(C)=O)nn32)cc1` (stereo not drawn) was tested. Which Potency did it give?
A: inconclusive: 25.1 µM [inhibitor, partial curve]

Q: `CNC(=O)C1(C)C=CCN1C(=O)c1ccccc1` (stereo not drawn) was tested. Which Potency did it give?
A: inactive

Q: With `COc1ccccc1Nc1nc(-c2cccc([N+](=O)[O-])c2)cs1` as the compound, how does the Potency read?
A: inactive

Q: `COc1cc(OC)nc(-n2ncc(Br)c(Br)c2=O)n1` was tested. Which Potency did it give?
A: inactive

Q: For `CCc1ccc(/C=C/C(=O)C2C(=O)c3ccccc3C2=O)cc1`, which Potency is on record?
A: inconclusive: 39.8 µM [inhibitor, single point]

Q: Which Potency does the source give for `COc1ccccc1C1C2=C(COC2=O)Nc2cc3c(cc21)OCO3` (stereo not drawn) here?
A: inconclusive: 28.2 µM [inhibitor, partial curve]

Q: `COc1cccc(-c2nc(=S)c3c(o2)CCCC3)c1` was tested. Which Potency did it give?
A: inconclusive: 28.2 µM [inhibitor, single point]

Q: How did the Potency turn out when `O=C(Nc1cc(N2CCOCC2)ncn1)Nc1cccc2ccccc12` was run?
A: inconclusive: 31.6 µM [inhibitor, single point]

Q: Which Potency does the source give for `O=C(NCc1nc2ccccc2[nH]1)c1ccco1` here?
A: inactive

Q: With `O=C(NNC(=O)c1cc2cc(Br)ccc2oc1=O)c1ccc(O)cc1O` as the compound, how does the Potency read?
A: inconclusive: 28.2 µM [inhibitor, single point]

Q: Which Potency does the source give for `O=C(Nc1ccccc1Cl)c1ccccc1Oc1ccc(C(F)(F)F)cc1[N+](=O)[O-]` here?
A: inactive

Q: `COc1cc(O)c2c(c1)C(=O)c1cc(C)cc(O)c1C2=O` was tested. Which Potency did it give?
A: inconclusive: 35.5 µM [inhibitor, single point]

Q: `CCCCn1c(SCC(=O)NCc2ccco2)nc2ccc(N3CCOCC3)cc2c1=O` was tested. Which Potency did it give?
A: inconclusive: 28.2 µM [inhibitor, partial curve]

Q: For `O=C(OCC(=O)c1ccccc1Br)c1ccccn1`, which Potency is on record?
A: inconclusive: 39.8 µM [inhibitor, single point]

Q: `Cc1cc(-c2nn(-c3ccccc3F)cc2CN2CCN(c3ccncc3)CC2)c(C)s1` was tested. Which Potency did it give?
A: inactive

Q: For `COc1ccc(C2=NN(C(=O)CSc3nc4ccccc4s3)C(c3ccc(F)cc3)C2)cc1` (stereo not drawn), which Potency is on record?
A: inconclusive: 39.8 µM [inhibitor, single point]

Q: With `C/C(=N\N1C(=O)c2ccccc2NC1c1ccccc1)c1ccccc1O` (stereo not drawn) as the compound, how does the Potency read?
A: inconclusive: 28.2 µM [inhibitor, single point]

Q: For `Cc1ccc(-c2nnc(N3CCN(C(=O)CN4CCOCC4)CC3)c3ccccc23)cc1`, which Potency is on record?
A: inactive

Q: Which Potency does the source give for `CCN(c1ccc(NC(=O)COC(=O)/C=C/c2cccs2)cc1)C(C)C` here?
A: inactive

Q: How did the Potency turn out when `COC(=O)c1ccc(C(=O)OC)c(NC(=O)CN(c2ccccc2)S(=O)(=O)N(C)C)c1` was run?
A: inconclusive: 39.8 µM [inhibitor, single point]

Q: With `COc1ccc(C(=O)N2CCN(c3nc4cc(C)ccc4cc3C#N)CC2)c(OC)c1` as the compound, how does the Potency read?
A: inconclusive: 28.2 µM [inhibitor, partial curve]

Q: `CC1=NOC2(C1)N(C)c1ccccc1C2(C)C` (stereo not drawn) was tested. Which Potency did it give?
A: inconclusive: 39.8 µM [inhibitor, single point]

Q: `CCOC(=O)c1[nH]c2cc(OC)c(OC)cc2c1NC(=O)C(C)N1CCN(Cc2ccccc2)CC1` (stereo not drawn) was tested. Which Potency did it give?
A: inconclusive: 31.6 µM [inhibitor, partial curve]

Q: Which Potency does the source give for `O=C(Nc1nc(-c2nc3ccccc3s2)cs1)C1CC1` here?
A: inconclusive: 35.5 µM [inhibitor, partial curve]

Q: With `COc1ccc(/C=C/C(=O)Nc2ccc(-n3nncc3-c3ccc(OC)c(OC)c3)cc2)cc1OC` as the compound, how does the Potency read?
A: inactive

Q: With `C/C=C/c1ccc(OCCCCOc2ccccc2F)c(OC)c1` as the compound, how does the Potency read?
A: inactive

Q: For `CCOC(=O)/C(C#N)=C1/C=CN(C)C(C)=N1`, which Potency is on record?
A: inconclusive: 39.8 µM [inhibitor, single point]

Q: How did the Potency turn out when `O=C(/C=C\NCC(=O)c1ccccc1)c1ccc2ccccc2c1` was run?
A: active: 17.8 µM

Q: `COC(=O)CSc1nnc(CNC(=O)c2cc(OC)c(OC)c(OC)c2)n1C` was tested. Which Potency did it give?
A: inactive

Q: `O=C(OCc1c(Cl)cccc1Cl)c1cccnc1` was tested. Which Potency did it give?
A: inconclusive: 39.8 µM [inhibitor, single point]

Q: `CC(C)CN(C)c1nc(N)c(C(=O)N=C(N)N)nc1Cl` was tested. Which Potency did it give?
A: inactive

Q: How did the Potency turn out when `CCOC(=O)c1[nH]c2ccc(F)cc2c1NC(=O)CCN1CCSCC1` was run?
A: inconclusive: 28.2 µM [inhibitor, partial curve]

Q: Which Potency does the source give for `O=S(=O)(c1ccc(F)cc1)c1nc(-c2ccco2)oc1Nc1ccc(F)cc1` here?
A: inconclusive: 35.5 µM [inhibitor, single point]

Q: For `Cc1cc(C)cc(OCC(=O)Nc2ccc(N3CCN(S(C)(=O)=O)CC3)cc2)c1`, which Potency is on record?
A: inconclusive: 20 µM [inhibitor, partial curve]

Q: Which Potency does the source give for `O=C(CN1CCc2ccccc2C1)c1cccs1` here?
A: inconclusive: 28.2 µM [inhibitor, single point]

Q: Which Potency does the source give for `Fc1ccc(/C=C2\CCCC3=C2NC(=S)NC3c2ccc(F)cc2)cc1` (stereo not drawn) here?
A: inactive

Q: With `COc1ccc2nccc(/C=C/c3ccnc4ccc(OC)cc34)c2c1` as the compound, how does the Potency read?
A: inconclusive: 35.5 µM [inhibitor, partial curve]

Q: For `COc1cccc(-n2c(N)c(C(=O)Nc3c(C)n(C)n(-c4ccccc4)c3=O)c3nc4ccccc4nc32)c1`, which Potency is on record?
A: inconclusive: 10 µM [inhibitor, partial curve]

Q: For `CCCC(C(=O)NC1CCCCC1)N(Cc1ccco1)C(=O)CNS(=O)(=O)c1ccccc1` (stereo not drawn), which Potency is on record?
A: inactive

Q: With `O=C(NC12CC3CC(CC(C3)C1)C2)c1cncc(O)c1` as the compound, how does the Potency read?
A: inconclusive: 28.2 µM [inhibitor, single point]

Q: How did the Potency turn out when `COCc1ccc(CN2CCCC(CO)(Cc3cccc(Cl)c3)C2)o1` (stereo not drawn) was run?
A: inactive

Q: Which Potency does the source give for `Clc1nc(-c2cccnc2)nc2scc(-c3ccccc3)c12` here?
A: inconclusive: 35.5 µM [inhibitor, single point]

Q: For `O=C1CCCC2=C1C(c1ccc(O)c(Br)c1)C1=C(CCCC1=O)N2c1ccccc1`, which Potency is on record?
A: inconclusive: 35.5 µM [inhibitor, single point]

Q: Which Potency does the source give for `CC(=O)N1CCN(c2ncnc3sc(-c4ccccc4)cc23)CC1` here?
A: inconclusive: 31.6 µM [inhibitor, partial curve]

Q: For `COc1cccc(/C=C/C(=O)NCc2cn3cc(Cl)ccc3n2)c1`, which Potency is on record?
A: inconclusive: 28.2 µM [inhibitor, single point]

Q: With `C=CCn1c(SCC(=O)N2CCOCC2)nc(O)cc1=O` as the compound, how does the Potency read?
A: inactive

Q: `C=CCNCCCCOc1ccc(OCC)cc1` was tested. Which Potency did it give?
A: inactive

Q: With `CCc1nc(N)c(C#N)c(-c2ccc(OC)c(OC)c2)c1C` as the compound, how does the Potency read?
A: inconclusive: 39.8 µM [inhibitor, single point]

Q: With `Cc1c2c(nc3c(C(=O)NC4CCCC4)cnn13)CCCC2` as the compound, how does the Potency read?
A: inconclusive: 3.55 µM [inhibitor, partial curve]

Q: For `Cc1ccc(C(=O)Oc2csc(=S)n2C(=O)c2ccc(C)cc2)cc1`, which Potency is on record?
A: inconclusive: 39.8 µM [inhibitor, single point]

Q: With `COc1cc(CC(=O)OCC(=O)Nc2cc([N+](=O)[O-])ccc2F)cc(OC)c1OC` as the compound, how does the Potency read?
A: inactive

Q: How did the Potency turn out when `Cc1nnc(SCc2ccccc2)[nH]c1=O` was run?
A: inactive

Q: `COc1cc2[nH]c(=O)n(CCCC(=O)NCCc3ccccc3)c(=O)c2cc1OC` was tested. Which Potency did it give?
A: inconclusive: 28.2 µM [inhibitor, partial curve]

Q: With `O=C(c1ccc([N+](=O)[O-])cc1)N1CCC(Cc2ccccc2)CC1` as the compound, how does the Potency read?
A: inactive

Q: With `O=C(O)CCS(=O)(=O)c1cc(Br)cc2c1N(C(=O)C1CC1)CC2` as the compound, how does the Potency read?
A: inconclusive: 31.6 µM [inhibitor, single point]
